Some of the results follow.

The subject of this test is T1, Caupolican (Caup) homeodomain DNA-binding domain.
T1 sequence: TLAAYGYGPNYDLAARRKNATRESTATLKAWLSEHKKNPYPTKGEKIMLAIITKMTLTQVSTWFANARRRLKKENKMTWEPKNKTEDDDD
Nature of the test: PBM E-score (8-mer, recovered from the published 9-mer minima) (E-score (dimensionless, -0.5 to 0.5)); Drosophila protein; higher = stronger relative binding preference, active = 0.31 or more. In outline:
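An enrichment score, with higher meaning stronger, expresses relative binding preference for each short DNA word. The protein used was Caup's homeodomain DNA-binding domain (residues 214-303), produced by in vitro transcription and translation and tested at 100 nM on custom-designed protein binding microarrays. The 8-mer values were recovered from published 9-mer scores, each equal to the lower of its two constituent 8-mer scores.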
On to ACTCGTCA, for which the “PBM E-score” value was inactive: 0.0815. In the case of ACTCCATC, the “PBM E-score” value was inactive: -0.034. As to AGTGTCAG, the “PBM E-score” value is inactive: 0.0798. Under AAGTTAGG stands inactive: 0.0319; under TACTGGAA, inactive: 0.0439.

Take GACTCTAC: the “PBM E-score” value was inactive: -0.0496.

Regarding ATGGATGC, the “PBM E-score” value is inactive: 0.0819. Under CAGTACTG stands inactive: -0.0376; under ATTAACCG, inactive: -0.0355. Under CAATTTCA stands inactive: 0.0522; under AAAATACG, inactive: 0.0692. Turning to CGGTCTAG, the “PBM E-score” value was inactive: -0.115.

As to GGAGGGCA, the “PBM E-score” value was inactive: -0.116. Under CAATCGTA stands inactive: 0.114; under GTCCTAAC, inactive: 0.0667. Under CACAGCGC stands inactive: -0.0681; under ATCCAAAG, inactive: 0.12. Under CGCCGCCG stands inactive: -0.225. Consider AAGGGGGG, for which the “PBM E-score” value is inactive: -0.4. Under ACTAGGGC stands inactive: -0.0894; under CGCCATGC, inactive: -0.15. ATATAATA: the “PBM E-score” value was not below 0.259. As for CACGCGTC, the figure is inactive: 0.0565; as for GGGTAACA, inactive: 0.216; as for AGAGGTCA, inactive: -0.0303.

Consider CGCCGTGA, for which the “PBM E-score” value is inactive: -0.0603. Under CACGGGGC stands inactive: -0.172; under GGACCTAA, inactive: -0.057.

As for GGTGTGGA, the “PBM E-score” value was inactive: -0.0814. Under CATTCACG stands inactive: -0.0298.

For CGCCTTAA, the “PBM E-score” value is inactive: -0.0449. Take CGTGGAAG: the “PBM E-score” value was inactive: -0.0419. Under GGGGGACA stands inactive: -0.134; under CCCTTAAC, inactive: -0.127; under AGACCCTC, inactive: -0.189.

For the sequence ATCACTTC, the “PBM E-score” value is inactive: 0.111.

Turning to CACGGGCA, the “PBM E-score” value is inactive: -0.0674. As for ATTCCCCA, the figure is inactive: -0.0404; as for GGTTATCA, inactive: 0.0986.

Regarding AACTTTGT, the “PBM E-score” value was inactive: 0.17. Under CTTCTGGC stands inactive: -0.136; under CAGTAACC, inactive: -0.0276. As for ACGACGGG, the figure is inactive: -0.122; as for CTCATGCC, inactive: -0.129.

For AGCGAGAC, the “PBM E-score” value was inactive: -0.0966. As for CTTTTGTA, the figure is inactive: 0.217. Under CCAGGCAA stands inactive: -0.0864; under CTGCACCA, inactive: -0.19; under CCTAGTAC, inactive: 0.184.

For the sequence TGCAACCA, the “PBM E-score” value was inactive: 0.0472. As for GTGGTGAA, the figure is inactive: -0.0583; as for CCTGGACA, inactive: 0.0418.

As to CATTGCGA, the “PBM E-score” value was inactive: 0.0289. As for AGTTCCTG, the figure is inactive: -0.0927; as for CGTTCAAA, inactive: -0.0536. As for CCTCTTAC, the figure is inactive: -0.0603; as for AATCTGAT, not below 0.18; as for TGGCTCAA, inactive: -0.14.

As to CAGCGTCA, the “PBM E-score” value is inactive: -0.161. As for CCAGGTCA, the figure is inactive: -0.0785; as for AGCAAACA, inactive: 0.219; as for GGGTTAAC, inactive: -0.0133. On to CATTGAGA, for which the “PBM E-score” value is inactive: 0.00083. Under GGATTCCC stands inactive: -0.176; under ACTACCTA, inactive: 0.0763; under GGTTTGCA, inactive: 0.0165. As for AGCTTGGG, the figure is inactive: -0.153; as for CGACGAAG, inactive: -0.0422. Under CTATAGAC stands inactive: 0.0171; under GTGTAGAA, inactive: 0.276.

Take GCTCTGCC: the “PBM E-score” value was inactive: -0.26. As for CCCTAGCA, the figure is inactive: -0.147. For CCAGAACC, the “PBM E-score” value is inactive: -0.0196. Under CCAAAGCA stands inactive: -0.072; under AATTACCC, inactive: -0.0159; under AACCATTG, inactive: 0.00918. As for ATCCTTGC, the figure is inactive: -0.0799. Under GAAATGAA stands inactive: 0.0795; under CAGAATGA, inactive: 0.0488. Turning to CACCCCGA, the “PBM E-score” value was inactive: -0.104.

In the case of TGTTCTAA, the “PBM E-score” value was inactive: 0.183. Under AACGGGAC stands inactive: -0.137; under ATCCTCGC, inactive: -0.15; under CGCGCGCA, inactive: -0.138. Under GCACGTCC stands inactive: -0.0893; under ACCCGGGC, inactive: -0.196. Turning to ATAAGCAG, the “PBM E-score” value was inactive: 0.0243. Turning to AAGTTACT, the “PBM E-score” value is inactive: 0.0883.

In the case of GTTGACCA, the “PBM E-score” value was inactive: -0.0437. Regarding CCTAGAGG, the “PBM E-score” value was inactive: -0.144. As for CGTACGGA, the figure is inactive: 0.0187; as for ACTATACC, inactive: 0.0953; as for GTGTGCTA, inactive: 0.0438. As for ATAACACC, the figure is inactive: 0.277; as for AATGAAAG, inactive: 0.0121; as for AGCGAGTG, inactive: -0.0342. Turning to TCAATACA, the “PBM E-score” value was inactive: 0.235. As for GAGCGTCA, the figure is inactive: -0.0974. Under CGGTATGA stands inactive: 0.0746.

Regarding GAGCGAAC, the “PBM E-score” value was inactive: -0.0727. As for AGCCGAGC, the figure is inactive: -0.27; as for CATGCGTC, inactive: 0.0489.

As to ATATCTCG, the “PBM E-score” value was inactive: 0.0306. As for AGGGTAGC, the figure is inactive: -0.121; as for AGATTAAG, inactive: 0.0165; as for GGGTGAAA, inactive: 0.0133. As for GGTGTCTA, the figure is inactive: 0.169.

Take AGAGCACC: the “PBM E-score” value is inactive: -0.17. Under ATTAACTC stands inactive: 0.0863; under GCCGTGAA, inactive: -0.0891. Under TGGCGCAA stands inactive: -0.194; under AGTCGACG, inactive: 0.0176.
